{"source": "PubChem BioAssay AID686978", "about": "(National Center for Advancing Translational Sciences (NCATS), 2013)", "note": "Screen size: about 420,000 compounds; about 64,000 (15%) were called active. The inconclusive results got no clear call from the source; some entries with a clear call stand among them for comparison. Calls come from the whole dose curve; as a rule, active = well fitted inhibition curve with a large enough effect; inconclusive = small, poorly fitted or top-dose-only effect; inactive = flat fitted curve, though single readings scatter. Potencies of inconclusive entries are left out as doubtful fits. Potency is the fitted concentration of half-maximal effect; tags give direction and shape of the fitted curve."}
{"assay": "qHTS for Inhibitors of human tyrosyl-DNA phosphodiesterase 1 (TDP1): qHTS in cells in absence of CPT; note: nearly all actives have a fitted effect of over 55% in size", "settings": "DT40 Tdp1-/- hTDP1 cells, no CPT, ATP luminescence, 48 h; series mostly up to 46.2 µM", "summary_of_the_method": "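A cellular qHTS used chicken DT40 cells lacking endogenous Tdp1 but carrying stably transfected human TDP1. Compounds were applied without camptothecin, and cell growth kinetics were judged by ATP-dependent luminescence after ≥48 hr.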"}
{"smiles": "COc1ccc(/C=C2\\SC(=S)N(CCC(=O)Nc3cccc(O)c3)C2=O)cc1", "Potency": "inconclusive [inhibitor, single point]"}
{"smiles": "COc1ccc(C(=O)NNC(=S)NC(=O)c2ccc(Cl)cc2)cc1", "Potency": "active: 23.1 µM"}
{"smiles": "O=C(CSc1ccccc1C(=O)O)c1ccc([N+](=O)[O-])cc1", "Potency": "inconclusive [inhibitor, single point]"}
{"smiles": "CCC(Oc1cc(Cl)ccc1Cl)C(=O)N1CCCN(C)CC1", "note": "(stereo not given)", "Potency": "inactive"}
{"smiles": "Cc1cccc(C(=O)O/N=C/c2c(Cl)n(C)c3ccccc23)c1", "Potency": "inconclusive [inhibitor, single point]"}
{"smiles": "O=C(Nc1ccc(F)cc1)c1cc2ccccc2o1", "Potency": "inconclusive [inhibitor, single point]"}
{"smiles": "NS(=O)(=O)c1ccc(Nc2c([N+](=O)[O-])cncc2[N+](=O)[O-])cc1", "Potency": "inconclusive [inhibitor, single point]"}
{"smiles": "CCCCC[n+]1ccn(C2=C([O-])c3ccccc3C(=O)/C2=N\\S(=O)(=O)c2ccccc2)c1", "Potency": "active: 18.4 µM"}
{"smiles": "CCOC(=O)c1cccc(C2=CC(=O)C[C@H](c3ccc(OC)c(OC)c3)C2)c1", "Potency": "inconclusive [inhibitor, single point]"}
{"smiles": "CCCc1c2oc(C(=O)O)cc(=O)c2cc2c(=O)cc(C(=O)O)n(CC)c12", "Potency": "inactive"}
{"smiles": "O=C(CSc1ccc(-c2ccncc2)nn1)N1CCN(c2ccccc2)CC1", "Potency": "inconclusive [inhibitor, single point]"}
{"smiles": "Cc1cc(C)cc(NC(=S)NCc2ccc(F)cc2)c1", "Potency": "inconclusive [inhibitor, single point]"}
{"smiles": "Cc1cc(NC(=O)CC(C)(C)C)nc2c1c(=O)oc1ccccc12", "Potency": "inactive"}
{"smiles": "Cc1ccn2c(Nc3ccccc3C)c(-c3ccc(N4CCOCC4)cc3)nc2c1", "Potency": "inconclusive [inhibitor, single point]"}
{"smiles": "COc1ccc2c(c1)C(O)C(CO)C(C(=O)O)C2", "note": "(stereo not given)", "Potency": "inactive"}
{"smiles": "CCOc1ccc(S(=O)(=O)N2CCCC(C(=O)NCc3cccnc3)C2)cc1", "note": "(stereo not given)", "Potency": "inconclusive [inhibitor, single point]"}
{"smiles": "COc1cccc(N(C(=O)c2snc(C(N)=O)c2N)C(C(=O)NCC2CCCO2)c2ccc(C)o2)c1", "note": "(stereo not given)", "Potency": "inconclusive [inhibitor, single point]"}
{"smiles": "CCCCc1cc(=O)oc2cc(OCC(=O)N(CC)CC)c(Cl)cc12", "Potency": "inconclusive [inhibitor, single point]"}
{"smiles": "COc1ccc(OC)c(NC(=S)N2CCc3ccccc3C2)c1", "Potency": "inconclusive [inhibitor, single point]"}
{"smiles": "Cc1ccccc1CCNC(=O)c1ccc(NC(=O)N2CC(C)Sc3ccccc32)cc1", "note": "(stereo not given)", "Potency": "active: 7.31 µM"}
{"smiles": "CCCN1CNc2c(c(=O)[nH]c(=S)n2CCc2cc(OC)cc(OC)c2)C1", "Potency": "inconclusive [inhibitor, single point]"}
{"smiles": "CC/C(=N\\NC(=S)NC(C)C)c1ccc(OC(F)F)cc1", "Potency": "active: 16.4 µM"}
{"smiles": "CC(=O)c1c(C)[nH]c(C(=O)OCC(=O)NCc2ccc3c(c2)OCO3)c1C", "Potency": "inconclusive [inhibitor, partial curve]"}
{"smiles": "Nc1nc(NS(=O)(=O)c2ccc(Cl)cc2)nn1-c1ccccc1", "Potency": "inactive"}
{"smiles": "Cc1[nH]nc(-c2ccc(OCc3cnn(-c4ccccc4)c3)cc2O)c1Oc1ccc(Cl)cc1", "Potency": "inconclusive [inhibitor, single point]"}
{"smiles": "CCC(C)(C)NC(=O)CN(Cc1cccs1)C(=O)CNS(=O)(=O)c1ccc(F)cc1", "Potency": "inactive"}
{"smiles": "CN(N)c1ccc2c(C(F)(F)F)cc(C(F)(F)F)nc2n1", "Potency": "inconclusive [inhibitor, single point]"}
{"smiles": "Cc1ccc(-c2cc(C(=O)NCc3cn(C)nc3C)c3cc(Br)ccc3n2)cc1", "Potency": "inconclusive [inhibitor, single point]"}
{"smiles": "O=C1/C(=C/c2cccs2)SC(=S)N1C1CCS(=O)(=O)C1", "note": "(stereo not given)", "Potency": "active: 18.4 µM"}
{"smiles": "Oc1cccc(CN2CCN(c3ncc(Cc4ccccc4)cn3)CC2)c1", "Potency": "inconclusive [inhibitor, single point]"}
{"smiles": "CC(C)C(c1nnnn1C1CCCC1)N1CCN(c2ccccc2F)CC1", "note": "(stereo not given)", "Potency": "active: 18.4 µM"}
{"smiles": "O=C(N/N=C\\c1ccco1)Nc1cccc(Cl)c1", "Potency": "inconclusive [inhibitor, single point]"}
{"smiles": "O=C(Cc1c(O)c2ccccc2[nH]c1=O)NC1CCCCCC1", "Potency": "inactive"}
{"smiles": "COc1ccc(-c2ccc3c(c2)C2CC3CCN2CCC#N)cc1", "note": "(stereo not given)", "Potency": "active: 23.1 µM"}
{"smiles": "CCn1cnc2cc(NCc3ccc(C)cc3)ccc21", "Potency": "inactive"}
{"smiles": "O=C1/C(=C\\c2cccc([N+](=O)[O-])c2O)SC(=S)N1Cc1ccccc1", "Potency": "active: 9.2 µM"}
{"smiles": "CN(C(=O)CCc1nnc(Cc2ccc(-c3ccccc3)cc2)o1)C1CCOCC1", "Potency": "inconclusive [inhibitor, single point]"}
{"smiles": "COc1ccccc1OCCn1c(C(C)O)nc2ccccc21", "note": "(stereo not given)", "Potency": "inactive"}
{"smiles": "CCOC(=O)c1ccc(N(CC(=O)NCC2CCCO2)C(=O)CCC(=O)Nc2cc(C)on2)cc1", "note": "(stereo not given)", "Potency": "inactive"}
{"smiles": "COC1(OC)C(/C=C/c2ccc(C)cc2)C(C#N)(C#N)C1(OC)OC", "note": "(stereo not given)", "Potency": "inconclusive [inhibitor, single point]"}
{"smiles": "CCN1C(=NCCc2ccccn2)N[C@@H](c2cccc(F)c2)C(C(=O)OC)=C1C", "Potency": "inconclusive [inhibitor, single point]"}
{"smiles": "CCC1CCCCN1S(=O)(=O)c1ccc(C(=O)N(CCCN(C)C)c2nc3cc4c(cc3s2)OCO4)cc1", "note": "(stereo not given)", "Potency": "inconclusive [inhibitor, single point]"}
{"smiles": "CCN1C(=O)[C@@H]2[C@@H]3CN(S(=O)(=O)c4ccc(C)cc4)[C@@H](c4ccccc4)[C@@H]3C(=O)C[C@@H]2C1=O", "Potency": "inactive"}
{"smiles": "O=C(CSc1ncnc2c1cnn2-c1ccc(F)cc1)NCC1CCCO1", "note": "(stereo not given)", "Potency": "inconclusive [inhibitor, partial curve]"}
{"smiles": "Cc1nn(C(C)(C)C)c(OC(=O)c2ccco2)c1Sc1ccccc1", "Potency": "inconclusive [inhibitor, full curve, poor fit]"}
